In PubChem BioAssay AID651820 (National Center for Advancing Translational Sciences (NCATS), 2012):
Screen size: about 340,000 compounds; about 12,000 (3.5%) were called active. The shares of active, inactive and inconclusive entries below differ from those in the screen. Calls come from the whole dose curve; as a rule, active = well fitted inhibition curve with a large enough effect; inconclusive = small, poorly fitted or top-dose-only effect, or another doubt; inactive = no such curve, though single readings can be large or run the other way. No potency is given beside an inconclusive call; the fits are too rough.

Test: qHTS Assay for Inhibitors of Hepatitis C Virus (HCV)
Conditions: Huh7.5.1 HCVcc-Cre (HCVcc is cell-culture hepatitis C virus) infection, luciferase reporter, 44 h; series mostly up to 41.8 µM
Outline: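 Cells (1,000/well) were plated 4 h before compound, then infected with HCVcc-Cre virus (~0.5 moi). After 44 h further culture, infection was read as luciferase luminescence following a 15 min substrate incubation at room temperature.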
Potency is the fitted concentration of half-maximal effect; tags give direction and shape of the fitted curve.

Row | Compound | Potency
1 | O=C(Nc1ccc2c(c1)oc1ccc(S(=O)(=O)N3CCCC3)cc12)C1CC1 | inconclusive [inhibitor, partial curve]
2 | Cc1ccc(NS(=O)(=O)c2ccc(Br)s2)nc1 | active: 3.55 µM
3 | COc1ccccc1C(=O)Nc1c(C)cc(Br)cc1C | inconclusive [inhibitor, single point]
4 | O=C(CN1CCN(S(=O)(=O)c2ccc(F)c(F)c2)CC1)Nc1ccccc1C(=O)NC1CC1 | inconclusive [inhibitor, single point]
5 | CCn1c(SCC(=O)c2ccccc2)nc2sc3c(c2c1=O)CCN(C)C3 | inconclusive [inhibitor, single point]
6 | Cc1n[nH]c(C)c1S(=O)(=O)NCCc1ccc(Cl)cc1 | inconclusive [inhibitor, single point]
7 | COc1ccccc1C(CC(=O)Nc1ccc(Cl)cc1)c1ccc(OC(C)C)cc1 (configuration not stated) | inconclusive [inhibitor, full curve]
8 | CCN1CCN(C2=C(NS(=O)(=O)c3ccccc3)C(=O)c3ccccc3C2=O)CC1 | active: 11.2 µM
9 | CCOC(=O)N1CCN(S(=O)(=O)c2ccc3c(c2)SCC(=O)N3)CC1 | inconclusive [inhibitor, single point]
10 | CC(C)(C)C1CCC(C(=O)OCC(=O)Nc2ccc3[nH]c(=O)[nH]c3c2)CC1 (configuration not stated) | inactive
11 | COCc1ccc(C(=O)NC2CCCc3c2cnn3-c2cc(C)cc(C)c2)s1 (configuration not stated) | active: 12.6 µM
12 | COc1ccc(OC)c(CNC(=O)c2ccc(C)c(NC(=O)C3=C(C)OCCS3)c2)c1 | inconclusive [inhibitor, partial curve, poor fit]
13 | COc1ccccc1C(=O)NCC(c1ccco1)N1CCc2ccccc21 (configuration not stated) | inconclusive [inhibitor, partial curve]
14 | COc1cccc(CNC(=O)[C@@H](C)N2C(=O)N3CCc4c([nH]c5ccc(OC)cc45)C3(C)C2=O)c1 (some centres not stated) | active: 8.91 µM
15 | O=C(CN1CCN(C(=O)c2ccco2)CC1)Nc1cc(Cl)ccc1Cl | inactive
16 | Cc1ccc(Oc2ccc(NC(=O)C3=CC=CN4CCS(=O)(=O)N=C34)cc2)cc1 | inactive
17 | C[C@@]12C(=O)Nc3ccc(Cl)cc3C(=O)N1[C@H]1c3ccccc3OC[C@@H]1[C@@H]2c1ccccc1 | inconclusive [inhibitor, partial curve]
18 | COc1cccc(OCC(O)CN2CCOCC2)c1 (configuration not stated) | inactive
19 | C=CCN1CN(S(=O)(=O)c2ccc(OC)cc2)c2nc3ccccc3nc21 | inconclusive [inhibitor, single point]
20 | CCc1nc2ccc(C(=O)NCCc3ccc(OC)c(OC)c3)cc2nc1CC | inconclusive [inhibitor, partial curve]
21 | O=C(COc1cccc2cccnc12)N/N=C/c1ccccc1O | inconclusive [inhibitor, single point]
22 | CCn1nc(C)c(CN2CCc3c([nH]c4ccccc34)C2c2ccc(F)c(OC)c2)c1C (configuration not stated) | inconclusive [inhibitor, partial curve, poor fit]
23 | CCOC(=O)N1CCC(n2c(SCC(=O)OCc3ccccc3)nc3ccsc3c2=O)CC1 | inconclusive [inhibitor, partial curve]

Row | Compound | Potency
24 | Nc1ncnc2c1ncn2C1CCCC1 | inconclusive [inhibitor, full curve]
25 | Cc1cc(C)n(CC(=O)O)c(=O)c1[N+](=O)[O-] | inconclusive [inhibitor, single point]
26 | COc1cc(OC)c2c(C)cc(=O)oc2c1C(CCN1CCN(c2ccccc2)CC1)c1ccc2c(c1)OCO2 (configuration not stated) | inconclusive [inhibitor, single point]
27 | O=C(Nc1cccc(C2=NCCN2)c1)Nc1cccc(C2=NCCN2)c1 | inactive
28 | COc1ccccc1-c1noc(CCC(=O)N2CCN(c3cc(C)ccc3C)CC2)n1 | inconclusive [inhibitor, single point]
29 | Cc1ccccc1CN1C(=O)C2(OCCCO2)c2ccccc21 | inconclusive [inhibitor, single point]
30 | CCCCCCC(=O)N/N=C/c1c(O)n(CCc2ccccc2)c(=O)[nH]c1=O | inconclusive [inhibitor, single point]
31 | CCCn1nc(NC(=O)CC)c2cc3cccc(C)c3nc21 | inconclusive [inhibitor, partial curve]
32 | Cc1cc(-c2ccccc2)nc(N/N=C/c2ccccc2F)n1 | inconclusive [inhibitor, single point]
33 | Cn1c(C(=O)NCCC2=CCCCC2)cc2c(=O)n3ccccc3nc21 | inconclusive [inhibitor, single point]
34 | Clc1ccc(OCCn2ccnc2)c(Cl)c1 | inconclusive [inhibitor, single point]
35 | COc1ccc(C(=O)N2CCCC(c3ccccc3)C2)cc1 (configuration not stated) | inactive
36 | CC(C)(C)c1ccc(Oc2ccc(NC(=O)c3cccs3)cn2)cc1 | inconclusive [inhibitor, single point]
37 | CC(=O)N1CCN(S(=O)(=O)c2ccc(S(=O)(=O)NC3CCCCC3)cc2)CC1 | inconclusive [inhibitor, single point]
38 | COc1ccccc1CC(=O)c1ccc(OCc2ccccc2)cc1 | inconclusive [inhibitor, full curve, poor fit]
39 | CC(Sc1nnc(Nc2ccccc2)s1)C(=O)Nc1nc(-c2ccccc2)cs1 (configuration not stated) | inconclusive [inhibitor, single point]
40 | Cc1ccc2[nH]c3c(N4CCc5ccccc5C4)ncnc3c2c1 | active: 3.55 µM
41 | CCCn1c2ccccc2c2nnc(SC(CC)C(=O)Nc3sc4c(c3C#N)CCCC4)nc21 (configuration not stated) | inactive
42 | CCOC(=O)c1cnc2c(Cl)cccc2c1NCCN(C)C | inconclusive [inhibitor, partial curve]
43 | Cc1ccc(OCC(=O)OC2CCCN(C)C2)cc1 (configuration not stated) | inconclusive [inhibitor, single point]
44 | CCOC(=O)c1c(CN(CC)CC)oc2ccc(OC)cc12 | inactive
45 | Cc1nn(CC(=O)Nc2ccc3nc4n(c(=O)c3c2)CCCC4)c(C)c1[N+](=O)[O-] | inactive
46 | O=C(CCNC(=O)c1ccccc1)Nc1ccc(Cl)c(S(=O)(=O)N2CCCCC2)c1 | inconclusive [inhibitor, partial curve]

Row | Compound | Potency
47 | CCN(CC)S(=O)(=O)c1ccc2c(c1)nc(SCC(=O)NC1CC1)n2-c1ccccc1OC | inconclusive [inhibitor, partial curve]
48 | O=C(c1ccc2c(=O)n(Cc3ccco3)c(=S)[nH]c2c1)N1CCN(c2ccccc2)CC1 | inconclusive [inhibitor, single point]
49 | CCN(CC)CCN(C(=O)c1ccccc1OC)c1nc2ccc(F)cc2s1 | inconclusive [inhibitor, single point]
50 | COc1ccc(C(=O)Nc2ccc(NC(=O)c3cccs3)cc2)cc1Cl | inactive
51 | CCOc1cc(S(=O)(=O)N(CC)CC)ccc1Cl | inconclusive [inhibitor, partial curve]
52 | CCCCN(C(=O)CSc1nn(-c2ccc(F)cc2)c(=S)s1)c1c(N)n(CCCC)c(=O)[nH]c1=O | inconclusive [inhibitor, partial curve]
53 | CCN1CCc2c(OCC(=O)Nc3cccc(C)c3)cccc2C1=O | inconclusive [inhibitor, partial curve]
54 | Cc1ncc(CN2CCC(C(=O)Nc3ccc(Oc4cccnc4)cc3)CC2)cn1 | inactive
55 | Cc1cccc(NC(=O)CN2CCc3cc4c(cc3C2C)OCCCO4)c1 (configuration not stated) | inconclusive [inhibitor, single point]
56 | COc1ccc2c(c1)c(C(=O)N/N=C/c1ccc(Cl)cc1)c(C)n2C | inconclusive [inhibitor, partial curve, poor fit]
57 | CS(=O)(=O)N1CCc2cc(S(=O)(=O)Nc3ccc4oc5c(c4c3)CCCC5)ccc21 | inconclusive [inhibitor, single point]
58 | CCOc1ccc(C(=O)Nc2ccncc2)cc1 | inconclusive [inhibitor, single point]
59 | COc1ccccc1C(=O)NC1CCN(C(=O)Nc2ccc(C)cc2)CC1 | inactive
60 | C[C@H](NS(=O)(=O)c1ccc2c(c1)OCCCO2)C(=O)N1CCN(Cc2ccc(C#N)cc2)CC1 | inconclusive [inhibitor, partial curve]
61 | O=[N+]([O-])c1cccc(/C=N/N2CCN(Cc3ccc(Cl)cc3)CC2)c1 | inconclusive [inhibitor, single point]
62 | CCn1ncc(Br)c1C(=O)Nc1cc(C)on1 | inactive
63 | COc1ccccc1NC(=O)Cc1noc(CN(C)Cc2cccs2)n1 | inconclusive [inhibitor, single point]
64 | Cc1nc(NC(=O)CN2CCN(c3ccccc3F)CC2)sc1C(=O)N(C)C | inactive
65 | CC(C)[C@H]1C(=O)N2CCC[C@H]2[C@]2(O)O[C@](NC(=O)[C@@H]3C=C4c5cccc6[nH]cc(c56)C[C@H]4N(C)C3)(C(C)C)C(=O)N12 | inactive
66 | CSc1nc(N(C)NC(=O)c2ccccc2)c2ccccc2n1 | inconclusive [inhibitor, full curve]
67 | O=C(Nc1nc2cc3c(cc2s1)OCO3)C1=COCCO1 | inconclusive [inhibitor, single point]
